Laboratory results from article PMC11111408, “Concurrent inhibition of oncogenic and wild-type RAS-GTP for cancer therapy” (Nature, 2024).
Some entries of the source have several records that differ or are many. This is not the full list of results. There may be further records. Values that stand side by side read as repeated measurements on other runs, samples or individuals.

Target: HRAS^G13R (Homo sapiens, UniProt P01112+P62937, G13R)
Assay: Biochemical RAS–RAF (BRAF RBD) disruption, TR-FRET
Text: Time-resolved fluorescence resonance energy transfer (TR-FRET) was used as previously described to assess disruption of the interactions between wild-type RAS or the mutant oncogenic RAS proteins and the RAS-binding domain of BRAF, and to assess the induction of interactions between the RAS proteins and CYPA[12].

Structure (SMILES): CCn1c(-c2cc(N3CCN(C4CC4)CC3)cnc2[C@H](C)OC)c2c3cc(ccc31)-c1csc(n1)C[C@H](NC(=O)[C@H]1[C@@H]3COC[C@@H]31)C(=O)N1CCC[C@H](N1)C(=O)OCC(C)(C)C2 [RMC-7977]
- EC50: 23.7 nM and 24 nM [columns of one line]
